Here are results for 82 compounds from ChEMBL document CHEMBL1201862, “PubChem BioAssay data set” (2004).

The structures appear in SMILES notation.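 A five-concentration, 48-hour dose response in 96-well plates underlies each endpoint, interpolated linearly between surrounding concentrations. Here, GI50 denotes the concentration required for 50% inhibition of growth.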 Calls of active or inactive are those of the source. Cut-off read from the data, not from the text of the source: active = GI50 up to about 1.1 µM and inactive = higher.

The experiment relates to NCI-H322M. Nature of the experiment: DTP human tumour cell line panel, 48 h.
Usually GI50 stands for the concentration at which growth is held to half of that of the control. `COC(=O)c1ccc(/N=N/N(C)CO)cc1`: the GI50 is inactive: > 100 µM.
In the case of `NCOC(=O)Cc1ccc(Br)cc1`, the GI50 was inactive: > 100 µM.
For the compound `CCC(C)C(=O)O[C@H]1C(=O)O[C@@H]2C[C@H]3C(C)=CC(=O)[C@@H](O)[C@]3(C)[C@H]3[C@@H](O)[C@H](O)[C@@]4(C)OC[C@]32[C@@H]14` (some centres not stated), the GI50 is active: < 0.0506 µM.
For `COC(=O)C1=C(C(=O)OC)C(C(=O)OC)C(C(=O)OC)C(C(=O)OC)(C(=O)OC)C(C(=O)OC)=C1C(=O)OC` (configuration not stated), the GI50 was inactive: 19.8 µM.
For `Cc1ccc2c(/C=C/c3ccc(N(C)C)cc3)ccnc2c1C`, the GI50 is inactive: 13.4 µM.
Take `Cc1ccc(/N=C2N=C(Cl)/C(=C\c3ccccc3)N\2)cc1`: the GI50 is inactive: > 100 µM.
The result for `COc1ccc(CC2COc3cc(O)cc(O)c3C2=O)cc1O` (configuration not stated) reads inactive: 30.5 µM; that for `O=C(c1ccco1)n1c2ccc(Br)cc2c2nc3ccccc3nc21`, inactive: 53.5 µM; that for `CC1=C(C(=O)NCCCN(CCO)CCO)CC(C(=O)NCCCN(CCO)CCO)=C(C)N1`, inactive: > 100 µM.
As to `O=S1(=O)N=C(SCc2ccccc2)N(c2ccccc2)c2ccncc21`, the GI50 is inactive: 45.5 µM.
`NC(=O)N/N=C(/CC1C(=O)Oc2ccccc21)c1ccccc1O` (configuration not stated): the GI50 was inactive: 35.5 µM.
With `c1ccc2c(CN3CCN(Cc4c[nH]c5ccccc45)CC3)c[nH]c2c1`, the GI50 was inactive: 18.1 µM.
The result for `OCCN(CCO)CCn1cnc2c(NCc3ccccc3)ncnc21` reads inactive: > 100 µM; that for `COc1ccc(/C(=C/n2ccnc2)C(=O)c2ccc(OC)c(OC)c2)cc1`, inactive: > 100 µM.
Consider `Cc1nc2ccccc2c(=O)n1NC(=S)Nc1ccccc1`, for which the GI50 is inactive: > 100 µM.
As for `COc1cc(Nc2cnc3cc(F)c(F)cc3n2)cc(OC)c1`, the figure is inactive: > 100 µM; as for `Cc1ccccc1NC(=O)C1C(=O)N(c2ccccc2C)C(=O)/C1=N\NC(N)=S` (configuration not stated), inactive: > 100 µM.
Take `O=C1Oc2ccccc2C(=O)/C1=C1/C=C(c2ccccc2)SS1`: the GI50 was inactive: > 100 µM.
The result for `COc1ccccc1Cc1ccc(C2C=CC3(CC(=O)C=C3C)C(=O)C2)o1` (configuration not stated) reads inactive: 40.7 µM; that for `CCOc1ccccc1NC(=O)CCC(=O)OC`, inactive: > 100 µM.
As for `O=C(O)c1cc(CC2Cc3cc4c(cc3C2=O)CCC4)cc2c1CCC2` (configuration not stated), the figure is inactive: > 100 µM.
As for `O=C(CC(=O)Nc1ccc(C(=O)O)cc1)Nc1ccc(C(=O)O)cc1`, the figure is inactive: > 100 µM; as for `Nc1nc(Cl)c(/N=N/c2ccc(Cl)cc2)c(NCC2(CO)CCC(CCc3ccccc3)C2)n1` (configuration not stated), inactive: 16.7 µM.
Regarding `Fc1cccc(C2ON=C(c3ccccc3)N2C23CC4CC(CC(C4)C2)C3)c1` (configuration not stated), the GI50 was inactive: > 10 µM.
The result for `COc1ccc(/C(Nc2ccccc2)=C(\CCl)c2ccccc2)cc1OC` reads inactive: > 100 µM; that for `CCNC(=O)CCN(C(=O)O)S(=O)(=O)c1ccc(NC(=O)c2ccccc2)cc1`, inactive: > 100 µM.
The result for `CN(C)C(CN)CC1=C(CC(CN)N(C)C)CCC1` (configuration not stated) reads inactive: > 100 µM.
As for `c1ccc2c(c1)nc1n2CSC1`, the figure is inactive: > 100 µM; as for `Cc1cc(Cl)ccc1NC(=O)CC1SC(Nc2ccccc2Cl)=NC1=O` (configuration not stated), inactive: 63.2 µM; as for `COC(=O)C(C(=O)C(=O)Nc1ccccc1C#N)c1nc2ccc([N+](=O)[O-])cc2nc1O` (configuration not stated), inactive: > 100 µM.
As to `Cn1c2ccccc2n2c3ccccc3c3nnc(N)c-3c12`, the GI50 was inactive: 23.5 µM.
`Cc1ccc([N+](=O)[O-])cc1NC(=O)c1cccc([N+](=O)[O-])c1O`: the GI50 is inactive: 8.65 µM.
On to `O=C(CCC(=O)Nc1ccc(Cl)c(Cl)c1)Cc1nc2ccccc2o1`, for which the GI50 is inactive: > 100 µM.
As for `Cc1ccc(NC(=O)CSc2nc(O)nc3[nH]cnc23)cc1`, the figure is inactive: > 100 µM; as for `CNC(=O)OCC1=C(COC(=O)NC)C(C)N(c2ccccc2)C1` (configuration not stated), inactive: 40.8 µM; as for `C/C(=N\NC(=S)Nc1ccc(Cl)cc1)c1nc2cccnc2[nH]1`, inactive: 1.88 µM.
As for `C/C=C1\CC(C(=O)OCC)CCCCCCC1=O` (configuration not stated), the figure is inactive: > 100 µM; as for `CN(C)C(=N)NC(=S)N(C)C`, inactive: > 100 µM; as for `O=C1C=CC(=O)C12CCc1ccccc12`, inactive: > 100 µM.
As for `Cc1nc(-c2ccc([N+](=O)[O-])cc2)cn2c1nc1ccccc12`, the figure is inactive: > 100 µM.
As for `CCOCC(=O)N[C@H]1CCc2cc(OC(=O)COCC)c(OC)c(OC)c2-c2ccc(SC)c(=O)cc21`, the GI50 is active: 0.0545 µM.
As for `C/C=C1\NC(=O)[C@H]2CSSCCC=C[C@H](CC(=O)N[C@H](C(C)C)C(=O)N2)OC(=O)[C@H](C(C)C)NC1=O`, the figure is active: 0.000212 µM; as for `COc1ccc(C(=O)NCCC2CN(S(=O)(=O)C(F)(F)F)c3ccccc32)c(OC)c1` (configuration not stated), inactive: > 100 µM; as for `CCOC(=O)Cn1nnc2cc(Nc3c(C)[n+]([O-])c4cc(F)c(OCC)cc4[n+]3[O-])ccc21`, inactive: > 100 µM.
As to `NC1=NN(c2ccccc2)C(=O)C1C(=O)C(=O)NC1C2CC3CC(C2)CC1C3` (configuration not stated), the GI50 is inactive: > 100 µM.
Turning to `O=[N+]([O-])/C(C(Cl)=C(Cl)Cl)=C1\Nc2ccc([N+](=O)[O-])cc2N1`, the GI50 is inactive: > 100 µM.
As for `O=C1/C(=C/Cc2ccco2)N=C(c2ccccc2)N1c1nc2ccc(Sc3ccccc3)cc2[nH]1`, the figure is inactive: 32.4 µM; as for `CN(C)C=[N+]=[N-]`, inactive: > 100 µM.
As for `[O-]/[N+](=N/c1ncc(-c2ccccc2)cn1)c1ncc(-c2ccccc2)cn1`, the figure is inactive: 35.9 µM; as for `CC1=NN(C(=O)CC(=O)Nc2ccccc2C)C(=O)C1/N=N/c1ccc(C(=O)O)cc1` (configuration not stated), inactive: > 100 µM; as for `CN(C)Cc1cc(/N=N/c2ccccc2)cc(CN(C)C)c1O`, inactive: 56.6 µM.
With `CN(CCc1ccccn1)c1ccc2c(c1)Cc1ccccc1-2`, the GI50 was inactive: 25.1 µM.
The result for `N#Cc1c(O)c(/N=N/c2ccccc2F)c(=O)n2c1[nH]c1ccccc12` reads inactive: 21.6 µM; that for `CC(=O)NNc1nc(C)c(C(=O)NNC(=O)C(=O)Nc2ccc(Cl)cc2)s1`, inactive: > 100 µM.
On to `O=C1C(=O)N(c2ccc(Cl)c(Cl)c2)C(=O)C(=O)C1c1nc2ccccc2s1`, for which the GI50 is inactive: > 100 µM.
The result for `CC(=O)Nc1ccc2c3c(cc(O)c2c1)N(C(=O)CCCCCCC(=O)Nc1ccc2c4c(cc(O)c2c1)N(C(=O)OC(C)(C)C)CC4CCl)CC3CCl` (configuration not stated) reads active: 0.258 µM; that for `Cc1cccc(C)c1NC(=O)C(=O)C1C(=O)N(c2ccccc2)N=C1N` (configuration not stated), inactive: > 100 µM; that for `O=C(Sc1c(-c2ccccc2)c(=O)n(-c2ccccc2)c(=S)n1-c1ccccc1)c1ccc(Cl)cc1`, inactive: 55.3 µM.
The result for `FC(F)(F)c1ccc2nc3n(c2c1)C(c1c(Cl)cccc1Cl)SC3` (configuration not stated) reads inactive: 17.5 µM; that for `O=C1Nc2ccccc2/C1=N/NC(=O)C(O)(c1ccccc1)c1ccccc1`, inactive: 19.9 µM; that for `Cc1cc2nc3c(C#N)c(-c4ccccc4)cc(Nc4ccc(Cl)cc4)n3c2cc1C`, inactive: > 100 µM.
With `S=C(NCCc1ccccn1)c1nc[nH]c1C(=S)NCCc1ccccn1`, the GI50 was inactive: > 100 µM.
The result for `CC(=O)c1ccc(NC(=O)C(=O)C(C#N)CC(C)(C)C=O)cc1` (configuration not stated) reads inactive: > 100 µM; that for `Nc1c(C(=O)c2ccccc2)[nH]c(NCc2ccccc2)c1C(=S)Nc1ccccc1`, inactive: > 100 µM; that for `CC(C)=CCC/C(C)=C/CC/C(C)=C/[C@@H]1[C@@H](CO)[C@]1(C)CC/C=C(\C)CCC=C(C)C`, inactive: > 100 µM.
Take `O=C1C=CC2(C=C1)C[C@H](NC(=O)C(F)(F)F)C(=O)O2`: the GI50 was inactive: > 100 µM.
As for `N#C/N=C(/N)NCN/C(N)=N\C#N`, the figure is inactive: 94 µM; as for `C=CCN1C(=O)/C(=C/c2cccs2)N=C1SC1OC(COC(=O)c2ccccc2)C(OC(=O)c2ccccc2)C1OC(=O)c1ccccc1` (configuration not stated), inactive: > 100 µM.
The result for `C/C([O-])=C(/c1nc(-c2ccc([N+](=O)[O-])o2)no1)[n+]1cc(C)ccc1C` reads inactive: 14.4 µM; that for `N#CC(C(=O)C(=O)C(C#N)c1ccc(Br)cc1)c1ccc(Br)cc1` (configuration not stated), inactive: 13.2 µM; that for `CC12c3c4cc(Br)cc3Oc3cc(Br)cc(c31)Oc1cc(Br)cc(c12)O4`, inactive: > 100 µM.
Consider `O=C1c2cc(Cl)ccc2-n2cnnc2C2CSCN12` (configuration not stated), for which the GI50 was inactive: > 100 µM.
As for `O=C(NNC(c1ccccc1)C(F)(F)F)c1ccncc1` (configuration not stated), the figure is inactive: > 100 µM; as for `O=C(CCCNC(=O)OCc1ccccc1)OCc1ccc2c(c1)C(=O)c1ccccc1C2=O`, inactive: > 100 µM.
With `N#C[BH2-][n+]1cn(C2CC(O)C(COP(=O)(O)OC3CC(n4c[n+]([BH2-]C#N)c5c(=O)[nH]c(N)nc54)OC3CO)O2)c2nc(N)[nH]c(=O)c21` (configuration not stated), the GI50 was inactive: > 100 µM.
Regarding `COC(=O)[C@@]12OC[C@]34C([C@@H](O)C1O)[C@@]1(C)CC(=O)C(OC(=O)CC(C)C(F)(F)F)=C(C)C1C[C@H]3OC(=O)[C@H](O)[C@H]42` (some centres not stated), the GI50 is inactive: 22.2 µM.
`CC(=O)N/N=C1/CC[C@@]2(C)C(=CC[C@H]3C4CCC(C(C)CCCC(C)C)[C@@]4(C)CCC32)C1(C)C` (some centres not stated): the GI50 is inactive: > 100 µM.
As for `c1ccc2c(c1)[nH]c1c2cc[n+]2cc3c(cc12)CCCC3`, the GI50 is inactive: 2.23 µM.
`Oc1cc(-c2ccccc2)nc2cc3c(cc12)OCO3`: the GI50 is inactive: 11.7 µM.
For `Cc1cccc2nc3cc(O)cc(O)c3c(O)c12`, the GI50 is inactive: 9.38 µM.
For the compound `Oc1cc(-c2cccc(Cl)c2)nc2ncccc12`, the 50% growth inhibitory concentration (GI50) is active: 0.204 µM.
As for `COc1ccc(Nc2cc(O)nc(O)n2)cc1`, the figure is inactive: > 100 µM.
